# Results as given in the supplement of paper PMC8728848.
# Some of the results follow.
# B1: Si Bti9 1b-HA (Solanum lycopersicum) (protein)
# chain: MFESRPRSVLSLGVFVILVYLSSVPLPVNSQCNRGCDLALASFYVWRGSNLTLISEMFSTSIADIVSYNNRDNIPNQDSVIAGTRINIPFRCDCLNDGEVLGHAFPYRVKSGDTYDLVARNYSDLTTAQWMMKFNSYPENNIPNTVNLSVVVNCSCGNSDVSKDFGLFVTYPVRAEDNLTSVASAANVSEDIIRRYNPAAVSILDIGQGIIYIPGRDRNGNFPPLPTSTDGLSGGAKAPLFFNPAFLYKVVELKLAGRSRTSGYPYDVPDYAGYPYDVPDYALEVLFQ
# Key:
# Test in all cases: glycan array binding signal (z-score within array); higher = stronger binding
# Details in all cases: glycan notation: IUPAC condensed, linker removed
# [1] = target: Man(a1-3)[Man(a1-6)]Man(a1-6)[Man(a1-3)]Man
# How it was run: (§1)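 Glycan array binding is given as a within-array Z-score, which can be read as non-binding when negative. The arrays, 3228 of them, came from the Consortium for Functional Glycomics database and were retained only where the protein sequence was available. Z-scores were averaged across arrays of the same protein sequence at different concentrations or buffers and across linkers.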
# [2] = target: Man(a1-3)[Man(a1-6)]Man(a1-6)[Man(a1-3)]Man(b1-4)GlcNAc(b1-4)GlcNAc
# How it was run: as §1
# [3] = target: Man(a1-3)[Man(a1-6)]Man(b1-4)GlcNAc(b1-4)GlcNAc
# How it was run: as §1
# [4] = target: Man(a1-3)[Man(a1-6)]Man(b1-4)GlcNAc(b1-4)[Fuc(a1-6)]GlcNAc
# How it was run: as §1
# Man(a1-6)Man = target: Man(a1-6)Man
# How it was run: as §1
# Man(b1-4)GlcNAc = target: Man(b1-4)GlcNAc
# How it was run: as §1
# MurNAc(b1-4)GlcNAc = target: MurNAc(b1-4)GlcNAc
# How it was run: as §1
# Neu5Ac(a2-3)Gal = target: Neu5Ac(a2-3)Gal
# How it was run: as §1
# [5] = target: Neu5Ac(a2-3)Gal(b1-3)GalNAc
# How it was run: as §1
# [6] = target: Neu5Ac(a2-3)Gal(b1-3)GalNAc(b1-3)Gal(a1-4)Gal(b1-4)Glc
# How it was run: as §1
# [7] = target: Neu5Ac(a2-3)Gal(b1-3)GalNAc(b1-4)[Neu5Ac(a2-3)]Gal(b1-4)Glc
# How it was run: as §1
# [8] = target: Neu5Ac(a2-3)Gal(b1-3)GalNAc(b1-4)[Neu5Ac(a2-8)Neu5Ac(a2-3)]Gal(b1-4)Glc
# How it was run: as §1
# [9] = target: Neu5Ac(a2-3)Gal(b1-3)GalNAc6S
# How it was run: as §1
# [10] = target: Neu5Ac(a2-3)Gal(b1-3)GlcNAc
# How it was run: as §1
# [11] = target: Neu5Ac(a2-3)Gal(b1-3)GlcNAc(b1-2)Man
# How it was run: as §1
# [12] = target: Neu5Ac(a2-3)Gal(b1-3)GlcNAc(b1-2)Man(a1-3)[GlcNAc(b1-4)][Neu5Ac(a2-3)Gal(b1-3)GlcNAc(b1-2)Man(a1-6)]Man(b1-4)GlcNAc(b1-4)GlcNAc
# How it was run: as §1
# [13] = target: Neu5Ac(a2-3)Gal(b1-3)GlcNAc(b1-2)Man(a1-3)[Neu5Ac(a2-3)Gal(b1-3)GlcNAc(b1-2)Man(a1-6)]Man(b1-4)GlcNAc(b1-4)GlcNAc
# How it was run: as §1
# [14] = target: Neu5Ac(a2-3)Gal(b1-3)GlcNAc(b1-3)Gal(b1-3)GlcNAc
# How it was run: as §1
# [15] = target: Neu5Ac(a2-3)Gal(b1-3)GlcNAc(b1-3)Gal(b1-4)GlcNAc
# How it was run: as §1
# [16] = target: Neu5Ac(a2-3)Gal(b1-3)GlcNAc(b1-3)GalNAc
# How it was run: as §1
# [17] = target: Neu5Ac(a2-3)Gal(b1-3)GlcNAc(b1-4)Gal(b1-4)Glc
# How it was run: as §1
# [18] = target: Neu5Ac(a2-3)Gal(b1-3)GlcNAc(b1-6)GalNAc
# How it was run: as §1
# [19] = target: Neu5Ac(a2-3)Gal(b1-3)GlcNAc6S
# How it was run: as §1
# [20] = target: Neu5Ac(a2-3)Gal(b1-3)[Fuc(a1-4)]GlcNAc
# How it was run: as §1
# [21] = target: Neu5Ac(a2-3)Gal(b1-3)[Fuc(a1-4)]GlcNAc(b1-3)Gal(b1-3)[Fuc(a1-4)]GlcNAc
# How it was run: as §1
# [22] = target: Neu5Ac(a2-3)Gal(b1-3)[Fuc(a1-4)]GlcNAc(b1-3)Gal(b1-4)[Fuc(a1-3)]GlcNAc
# How it was run: as §1
# [23] = target: Neu5Ac(a2-3)Gal(b1-3)[GlcNAc(b1-6)]GalNAc
# How it was run: as §1
# [24] = target: Neu5Ac(a2-3)Gal(b1-3)[Neu5Ac(a2-6)]GalNAc
# How it was run: as §1
# [25] = target: Neu5Ac(a2-3)Gal(b1-3)[Neu5Ac(a2-6)]GlcNAc(b1-3)[Fuc(a1-3)[Gal(b1-4)]GlcNAc(b1-6)]Gal(b1-4)Glc
# How it was run: as §1
# [26] = target: Neu5Ac(a2-3)Gal(b1-3)]Neu5Ac(a2-3)Gal(b1-4)]GlcNAc
# How it was run: as §1
# Neu5Ac(a2-3)Gal(b1-4)Glc = target: Neu5Ac(a2-3)Gal(b1-4)Glc
# How it was run: as §1
# [27] = target: Neu5Ac(a2-3)Gal(b1-4)GlcNAc
# How it was run: as §1
# [28] = target: Neu5Ac(a2-3)Gal(b1-4)GlcNAc(b1-2)Man
# How it was run: as §1
# [29] = target: Neu5Ac(a2-3)Gal(b1-4)GlcNAc(b1-2)Man(a1-3)[GlcNAc(b1-4)][Neu5Ac(a2-3)Gal(b1-4)GlcNAc(b1-2)Man(a1-6)]Man(b1-4)GlcNAc(b1-4)GlcNAc
# How it was run: as §1
# [30] = target: Neu5Ac(a2-3)Gal(b1-4)GlcNAc(b1-2)Man(a1-3)[Neu5Ac(a2-3)Gal(b1-4)GlcNAc(b1-2)Man(a1-6)]Man(b1-4)GlcNAc(b1-4)GlcNAc
# How it was run: as §1
# [31] = target: Neu5Ac(a2-3)Gal(b1-4)GlcNAc(b1-2)Man(a1-3)[Neu5Ac(a2-3)Gal(b1-4)GlcNAc(b1-2)Man(a1-6)]Man(b1-4)GlcNAc(b1-4)[Fuc(a1-6)]GlcNAc
# How it was run: as §1
# [32] = target: Neu5Ac(a2-3)Gal(b1-4)GlcNAc(b1-2)Man(a1-3)[Neu5Ac(a2-6)Gal(b1-4)GlcNAc(b1-2)Man(a1-6)]Man(b1-4)GlcNAc(b1-4)GlcNAc
# How it was run: as §1
# [33] = target: Neu5Ac(a2-3)Gal(b1-4)GlcNAc(b1-2)[Neu5Ac(a2-3)Gal(b1-4)GlcNAc(b1-4)]Man(a1-3)[GlcNAc(b1-4)][Neu5Ac(a2-3)Gal(b1-4)GlcNAc(b1-2)[Neu5Ac(a2-3)Gal(b1-4)GlcNAc(b1-6)]Man(a1-6)]Man(b1-4)GlcNAc(b1-4)GlcNAc
# How it was run: as §1
binder,measurement,setting,value
B1,glycan array binding signal (z-score),[1],0.637
same,glycan array binding signal (z-score),[2],-0.004
same,glycan array binding signal (z-score),[3],-0.34
same,glycan array binding signal (z-score),[4],-0.181
same,glycan array binding signal (z-score),Man(a1-6)Man,7.42
same,glycan array binding signal (z-score),Man(b1-4)GlcNAc,0.25
same,glycan array binding signal (z-score),MurNAc(b1-4)GlcNAc,-0.518
same,glycan array binding signal (z-score),Neu5Ac(a2-3)Gal,-0.17
same,glycan array binding signal (z-score),[5],-0.304
same,glycan array binding signal (z-score),[6],-0.445
same,glycan array binding signal (z-score),[7],-0.283
same,glycan array binding signal (z-score),[8],-0.478
same,glycan array binding signal (z-score),[9],-0.075
same,glycan array binding signal (z-score),[10],-0.333
same,glycan array binding signal (z-score),[11],-0.142
same,glycan array binding signal (z-score),[12],0.057
same,glycan array binding signal (z-score),[13],0.345
same,glycan array binding signal (z-score),[14],-0.489
same,glycan array binding signal (z-score),[15],-0.297
same,glycan array binding signal (z-score),[16],-0.047
same,glycan array binding signal (z-score),[17],-0.098
same,glycan array binding signal (z-score),[18],-0.247
same,glycan array binding signal (z-score),[19],-0.055
same,glycan array binding signal (z-score),[20],-0.166
same,glycan array binding signal (z-score),[21],-0.407
same,glycan array binding signal (z-score),[22],0.083
same,glycan array binding signal (z-score),[23],-0.327
same,glycan array binding signal (z-score),[24],-0.125
same,glycan array binding signal (z-score),[25],-0.273
same,glycan array binding signal (z-score),[26],0.17
same,glycan array binding signal (z-score),Neu5Ac(a2-3)Gal(b1-4)Glc,0.009
same,glycan array binding signal (z-score),[27],-0.428
same,glycan array binding signal (z-score),[28],1.37
same,glycan array binding signal (z-score),[29],-0.682
same,glycan array binding signal (z-score),[30],-0.375
same,glycan array binding signal (z-score),[31],-0.088
same,glycan array binding signal (z-score),[32],-0.502
same,glycan array binding signal (z-score),[33],-0.615
